Measurements reported in the supplement of paper PMC4604168 (melanoma cell lines).
This is one part of the list. Repeats are few or missing, and single values can be far off.

Tested on: SkMel30
Assay: cell count relative to DMSO control; melanoma cells; higher = more viable cells
Details: library dose: low library concentration; 72 h
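Note: cell number obtained by counting DAPI-stained nuclei in high-throughput microscope images with image analysis software, screen run in 1,536-well plates.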

Compound	cell count [%]
CO[C@H]1C[C@@H]2CC[C@@H](C)[C@@](O)(O2)C(=O)C(=O)N2CCCC[C@H]2C(=O)O[C@H]([C@H](C)C[C@@H]2CC[C@@H](OCCO)[C@H](OC)C2)CC(=O)[C@H](C)/C=C(\C)[C@@H](O)[C@@H](OC)C(=O)[C@H](C)C[C@H](C)/C=C/C=C/C=C/1C [everolimus] + C=CCNC1=C2C[C@@H](C)C[C@H](OC)[C@H](O)[C@@H](C)/C=C(\C)[C@H](OC(N)=O)[C@@H](OC)/C=C\C=C(/C)C(=O)NC(=CC1=O)C2=O [Tanespimycin] (first compound 0.02 µM, partner dose 0.002 µM)	64.5
Nc1nc(F)nc2c1ncn2[C@@H]1O[C@H](CO)[C@@H](O)[C@@H]1O [fludarabine] + Cn1nnc2c(C(N)=O)ncn2c1=O [temozolomide] (first compound 0.2 µM, partner dose 2 µM)	22.8
CC(=O)c1c(C)c2cnc(Nc3ccc(N4CCNCC4)cn3)nc2n(C2CCCC2)c1=O [palbociclib] + O=S(=O)(c1ccccc1)N(CC(F)(F)F)c1ccc(C(O)(C(F)(F)F)C(F)(F)F)cc1 [T0901317] (first compound 0.04 µM, partner dose 1.4 µM)	78.6
CO[C@H]1C[C@@H]2CC[C@@H](C)[C@@](O)(O2)C(=O)C(=O)N2CCCC[C@H]2C(=O)O[C@H]([C@H](C)C[C@@H]2CC[C@@H](OCCO)[C@H](OC)C2)CC(=O)[C@H](C)/C=C(\C)[C@@H](O)[C@@H](OC)C(=O)[C@H](C)C[C@H](C)/C=C/C=C/C=C/1C [everolimus] + CCCS(=O)(=O)Nc1ccc(F)c(C(=O)c2c[nH]c3ncc(Cl)cc23)c1F [PLX4720] (first compound 0.02 µM, partner dose 0.08 µM)	70.1
Nc1ncn([C@H]2C[C@H](O)[C@@H](CO)O2)c(=O)n1 [decitabine] + Cn1cncc1[C@@](N)(c1ccc(Cl)cc1)c1ccc2c(c1)c(-c1cccc(Cl)c1)cc(=O)n2C [tipifarnib] (first compound 0.1 µM, partner dose 0.01 µM)	126
CO[C@H]1C[C@@H]2CC[C@@H](C)[C@@](O)(O2)C(=O)C(=O)N2CCCC[C@H]2C(=O)O[C@H]([C@H](C)C[C@@H]2CC[C@@H](OCCO)[C@H](OC)C2)CC(=O)[C@H](C)/C=C(\C)[C@@H](O)[C@@H](OC)C(=O)[C@H](C)C[C@H](C)/C=C/C=C/C=C/1C [everolimus] + Nc1ccn([C@@H]2O[C@H](CO)[C@@H](O)C2(F)F)c(=O)n1 [gemcitabine] (first compound 0.02 µM, partner dose 0.0004 µM)	68.8
CC(=O)O[C@@]12CO[C@@H]1C[C@H](O)[C@@]1(C)C(=O)[C@H](O)C3=C(C)[C@@H](OC(=O)[C@H](O)[C@@H](NC(=O)OC(C)(C)C)c4ccccc4)C[C@@](O)([C@@H](OC(=O)c4ccccc4)[C@H]21)C3(C)C [Docetaxel] + COc1cc2ncnc(Nc3ccc(Oc4ccccc4)cc3)c2cc1OC [SrcI1] (first compound 0.0001 µM, partner dose 2 µM)	41.6
CO[C@H]1C[C@@H]2CC[C@@H](C)[C@@](O)(O2)C(=O)C(=O)N2CCCC[C@H]2C(=O)O[C@H]([C@H](C)C[C@@H]2CC[C@@H](OCCO)[C@H](OC)C2)CC(=O)[C@H](C)/C=C(\C)[C@@H](O)[C@@H](OC)C(=O)[C@H](C)C[C@H](C)/C=C/C=C/C=C/1C [everolimus] + CC(C)CCN1c2nc(Nc3cc(F)c(O)c(F)c3)ncc2N(C)C(=O)C1C [BID1870] (first compound 0.02 µM, partner dose 0.2 µM)	78
CO[C@H]1C[C@@H]2CC[C@@H](C)[C@@](O)(O2)C(=O)C(=O)N2CCCC[C@H]2C(=O)O[C@H]([C@H](C)C[C@@H]2CC[C@@H](OCCO)[C@H](OC)C2)CC(=O)[C@H](C)/C=C(\C)[C@@H](O)[C@@H](OC)C(=O)[C@H](C)C[C@H](C)/C=C/C=C/C=C/1C [everolimus] + Nc1cccc2c1CN(C1CCC(=O)NC1=O)C2=O [lenalidomide] (first compound 0.02 µM, partner dose 1 µM)	83.6
CO[C@H]1C[C@@H]2CC[C@@H](C)[C@@](O)(O2)C(=O)C(=O)N2CCCC[C@H]2C(=O)O[C@H]([C@H](C)C[C@@H]2CC[C@@H](OCCO)[C@H](OC)C2)CC(=O)[C@H](C)/C=C(\C)[C@@H](O)[C@@H](OC)C(=O)[C@H](C)C[C@H](C)/C=C/C=C/C=C/1C [everolimus] + CS(=O)(=O)CCNCc1ccc(-c2ccc3ncnc(Nc4ccc(OCc5cccc(F)c5)c(Cl)c4)c3c2)o1 [lapatinib] (first compound 0.02 µM, partner dose 0.8 µM)	68
CO[C@H]1C[C@@H]2CC[C@@H](C)[C@@](O)(O2)C(=O)C(=O)N2CCCC[C@H]2C(=O)O[C@H]([C@H](C)C[C@@H]2CC[C@@H](OCCO)[C@H](OC)C2)CC(=O)[C@H](C)/C=C(\C)[C@@H](O)[C@@H](OC)C(=O)[C@H](C)C[C@H](C)/C=C/C=C/C=C/1C [everolimus] + O=C(O)c1ccc2c(c1)nc(Nc1cccc(Cl)c1)c1ccncc12 [CX4945] (first compound 0.02 µM, partner dose 0.4 µM)	67
CO[C@H]1C[C@@H]2CC[C@@H](C)[C@@](O)(O2)C(=O)C(=O)N2CCCC[C@H]2C(=O)O[C@H]([C@H](C)C[C@@H]2CC[C@@H](OCCO)[C@H](OC)C2)CC(=O)[C@H](C)/C=C(\C)[C@@H](O)[C@@H](OC)C(=O)[C@H](C)C[C@H](C)/C=C/C=C/C=C/1C [everolimus] + Clc1ccc(Nc2nnc(Cc3ccncc3)c3ccccc23)cc1 [vatalanib] (first compound 0.02 µM, partner dose 2 µM)	67
CC(=O)c1c(C)c2cnc(Nc3ccc(N4CCNCC4)cn3)nc2n(C2CCCC2)c1=O [palbociclib] + COc1cc(Nc2ncc(F)c(Nc3ccc4c(n3)NC(=O)C(C)(C)O4)n2)cc(OC)c1OC [Tamatinib] (first compound 0.04 µM, partner dose 0.4 µM)	76.1
CO[C@H]1C[C@@H]2CC[C@@H](C)[C@@](O)(O2)C(=O)C(=O)N2CCCC[C@H]2C(=O)O[C@H]([C@H](C)C[C@@H]2CC[C@@H](OCCO)[C@H](OC)C2)CC(=O)[C@H](C)/C=C(\C)[C@@H](O)[C@@H](OC)C(=O)[C@H](C)C[C@H](C)/C=C/C=C/C=C/1C [everolimus] + CNC(=O)c1cc(Oc2ccc(NC(=O)Nc3ccc(Cl)c(C(F)(F)F)c3)cc2)ccn1 [sorafenib] (first compound 0.02 µM, partner dose 0.4 µM)	80.7
CO[C@H]1C[C@@H]2CC[C@@H](C)[C@@](O)(O2)C(=O)C(=O)N2CCCC[C@H]2C(=O)O[C@H]([C@H](C)C[C@@H]2CC[C@@H](OCCO)[C@H](OC)C2)CC(=O)[C@H](C)/C=C(\C)[C@@H](O)[C@@H](OC)C(=O)[C@H](C)C[C@H](C)/C=C/C=C/C=C/1C [everolimus] + Cn1nnc2c(C(N)=O)ncn2c1=O [temozolomide] (first compound 0.02 µM, partner dose 2 µM)	64.4
CO[C@H]1C[C@@H]2CC[C@@H](C)[C@@](O)(O2)C(=O)C(=O)N2CCCC[C@H]2C(=O)O[C@H]([C@H](C)C[C@@H]2CC[C@@H](OCCO)[C@H](OC)C2)CC(=O)[C@H](C)/C=C(\C)[C@@H](O)[C@@H](OC)C(=O)[C@H](C)C[C@H](C)/C=C/C=C/C=C/1C [everolimus] + Cc1ccc(NC(=O)c2cccc(N(C)C)c2)cc1NC(=O)c1ccc(O)cc1 [ZM336372] (first compound 0.02 µM, partner dose 2 µM)	59
CC(=O)c1c(C)c2cnc(Nc3ccc(N4CCNCC4)cn3)nc2n(C2CCCC2)c1=O [palbociclib] + COc1ccc(COc2ccc(Cc3cnc(N)nc3N)cc2OC)cc1 [GW2580] (first compound 0.04 µM, partner dose 1 µM)	81.3
CO[C@H]1C[C@@H]2CC[C@@H](C)[C@@](O)(O2)C(=O)C(=O)N2CCCC[C@H]2C(=O)O[C@H]([C@H](C)C[C@@H]2CC[C@@H](OCCO)[C@H](OC)C2)CC(=O)[C@H](C)/C=C(\C)[C@@H](O)[C@@H](OC)C(=O)[C@H](C)C[C@H](C)/C=C/C=C/C=C/1C [everolimus] + CCc1ccc(CCOc2ccc(CC3SC(=O)NC3=O)cc2)nc1 [pioglitazone] (first compound 0.02 µM, partner dose 2 µM)	61.8
Nc1ncn([C@H]2C[C@H](O)[C@@H](CO)O2)c(=O)n1 [decitabine] + COc1ccc(COc2ccc(Cc3cnc(N)nc3N)cc2OC)cc1 [GW2580] (first compound 0.1 µM, partner dose 1 µM)	108
Nc1nc(F)nc2c1ncn2[C@@H]1O[C@H](CO)[C@@H](O)[C@@H]1O [fludarabine] + O=S(=O)(c1ccccc1)N(CC(F)(F)F)c1ccc(C(O)(C(F)(F)F)C(F)(F)F)cc1 [T0901317] (first compound 0.2 µM, partner dose 1.4 µM)	22.4
Nc1ncn([C@H]2C[C@H](O)[C@@H](CO)O2)c(=O)n1 [decitabine] + O=C(O)C(=O)Nc1sc2c(c1C(=O)O)CCNC2 [TCS401] (first compound 0.1 µM, partner dose 1.66667 µM)	88.8
CO[C@H]1C[C@@H]2CC[C@@H](C)[C@@](O)(O2)C(=O)C(=O)N2CCCC[C@H]2C(=O)O[C@H]([C@H](C)C[C@@H]2CC[C@@H](OCCO)[C@H](OC)C2)CC(=O)[C@H](C)/C=C(\C)[C@@H](O)[C@@H](OC)C(=O)[C@H](C)C[C@H](C)/C=C/C=C/C=C/1C [everolimus] + OCc1c[nH]c2ccccc12 [Indole-3-carbinol] (first compound 0.02 µM, partner dose 0.8 µM)	63.4
